Results from US20220380473A1, “ANTI-GAL3 ANTIBODIES AND USES THEREOF” (TrueBinding, Inc., priority 2019, published 2022).
Values belong to the molecule of their own block, whether it stands above or below them.

Assays:
[1] = biological target: T1, association of GAL3 and TIM3 (Homo sapiens, UniProt P17931); test: GAL3-TIM3 blocking ELISA (Examples 24, 27); format: binding
T1 construct: full-length human Galectin-3 protein (Acro Biosystems, GA3-H5129); linker-spaced 6-histidine tag; purchased Acro Biosystems GA3-H5129 (Gal3); TM3-H5229 (TIM-3)
Method: Positively scoring wells were evaluated for the ability to block association of GAL3 and TIM3. To identify GAL3-targeted antibodies with the ability to block the interaction of GAL3 and TIM3, purified GAL3 and TIM3 proteins were incubated in the presence of GAL3-immunization hybridoma supernatants described above, or without antibody, and protein interaction was evaluated by ELISA. Human Galectin-3 protein (Acro Biosystems, GA3-H5129) was diluted in PBS (Corning, 21-030-CM) to a concentration of 3 μg/ml and added to the wells of a 96-well ELISA plate (Thermo Fisher, 44-2404-21). After incubating the plate at 4° C. overnight, the plate was washed three times with PBST (PBS with 0.05% Tween 20 [VWR, 0777]). The plate was then blocked for an hour with 2% BSA (EMD Millipore, 126609) in PBST at room temperature with gentle rocking. Thereafter, the 2% BSA in PBST was discarded and antibody or inhibitor (3-fold dilutions beginning at 20 μg/ml, 60 μg/ml, or 180 μM) in 2% BSA in PBST was added to the wells. Afterwards, 2 μg/ml of human TIM3 (Aero Biosystems, TM3-H5229) in 2% BSA in PBST was added to the antibody or inhibitor in the wells in a 1:1 ratio. The plate was incubated for an hour at room temperature with gentle rocking. […] The reaction was stopped with 1M HCl (JT Baker, 5620-02) and read using a plate reader (Molecular Devices) at absorbance of 450 nm.

[2] = test system: hGal3 peptide; test: Gal3 peptide library ELISA (Example 25); format: binding, human; conditions: peptide array ELISA
Method: To identify the epitopes to which Gal3 antibodies with and without Gal3-TIM3 blocking activity bound, a library of 20 amino acid peptides representing portions of Gal3, summarized in Table 24.1, was produced and the ability to bind Gal3 antibodies was evaluated by ELISA.
At least 2 μg/ml of hGal3 peptide in 50 μl of PBS or 0.1 μg/ml of full-length human Gal3 protein (GenScript) and human Galectin-3 protein (Acro Biosystems, GA3-H5129) were diluted in PBS (Corning, 21-030-CM) to concentrations of at least 2 μg/ml or 0.1 μg/ml, respectively, and added to the wells of a 96-well ELISA plate (Thermo Fisher, 44-2404-21). After incubating the plate at 4° C. overnight, the plate was washed three times with PBST (PBS with 0.05% Tween 20 [VWR, 0777]). The plate was then blocked for an hour with 2% BSA (EMD Millipore, 126609) in PBST at room temperature with gentle rocking. Thereafter, the 2% BSA in PBST was discarded and human Galectin-3 hybridoma supernatants or antibodies were diluted in 2% BSA in PBST to concentrations of at least 0.1 μg/ml and added to the wells. The plate was incubated for an hour at room temperature with gentle rocking and then washed three times with PBST. […] The reaction was stopped with 1M HCl (JT Baker, 5620-02) and read using a plate reader (Molecular Devices) at absorbance of 450 nm.

[3] = biological target: Galectin-3 (Homo sapiens, UniProt P17931); test: SPR (BiacoreT200) binding affinity; conditions: 25° C., read-out: hGal-3 KD
Method: GAL3-binding antibodies were evaluated for their binding affinity by SPR. Kinetics experiments were performed on BiacoreT200 at 25° C. in high performance mode. Ligand proteins, purified antibodies were captured onto a CM5 chip coupled with anti-human Fc or anti-mouse Fc antibody, three antibodies at a time onto flow cell #2, 3, and 4, respectively, while flow cell #1 was used as reference. The analyte Galectin-3 in HBS-EP buffer was injected over all four flow cells at concentrations of 100, 50, 25, 12.5, 6.25, 3.125 and 0 nM at a flow rate of 30 μL/min. The complex was allowed to associate and dissociate for 240 and 300 seconds, respectively. The surfaces were regenerated with a 30 second injection of 10 mM Glycine pH 1.7 (flow rate 30 μL/min). The data were fit to a simple 1:1 interaction model using the global data analysis option available within BiacoreT200 Evaluation software V2.0. The affinity of Gal3 monoclonal antibodies was confirmed to be […] 30 nM for all antibodies studied (Table 24.1). Antibodies with affinity less than 2E-7 were selected for further characterization.

T1 sequence (P17931 2-250 limits assumed): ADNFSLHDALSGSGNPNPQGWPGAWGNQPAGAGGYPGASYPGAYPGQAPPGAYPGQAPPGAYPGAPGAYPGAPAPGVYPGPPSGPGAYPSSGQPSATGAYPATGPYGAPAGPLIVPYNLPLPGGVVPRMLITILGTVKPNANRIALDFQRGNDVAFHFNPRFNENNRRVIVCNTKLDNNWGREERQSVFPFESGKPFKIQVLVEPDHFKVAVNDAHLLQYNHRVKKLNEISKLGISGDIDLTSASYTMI
Sequence of Galectin-3 (P17931 whole entry): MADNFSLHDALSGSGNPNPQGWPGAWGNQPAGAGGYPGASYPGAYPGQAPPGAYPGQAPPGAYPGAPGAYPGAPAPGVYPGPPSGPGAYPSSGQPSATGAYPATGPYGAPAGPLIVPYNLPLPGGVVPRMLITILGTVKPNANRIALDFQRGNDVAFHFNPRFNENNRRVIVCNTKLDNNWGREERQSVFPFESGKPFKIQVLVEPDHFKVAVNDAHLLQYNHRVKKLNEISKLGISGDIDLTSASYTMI

- IC50 ([1]; titration series, purified GAL3 and TIM3): 2.8 nM
B1: IMT006-8: humanized anti-Gal3 antibody (antibody)
heavy: QVQLVQSGAEVKKPGASVKVSCKASGYSFTNYYIHWVRQAPGQRLEWMGWIYPGSGNTNYNEKFQGRVTLTADTSASTTYMELSSLRSEDTAVYYCSTAPGGFDVWGQGTTVTVSSASTKGPSVFPLAPCSRSTSESTAALGCLVKDYFPEPVTVSWNSGALTSGVHTFPAVLQSSGLYSLSSVVTVPSSSLGTKTYTCNVDHKPSNTKVDKRV[human IgG4 Fc with S228P (EU numbers) cut from this listing]
light: DIVMTQSPLSLPVTPGEPASISCRSSKSLLHSDGITYLYWYLQKPGQSPQLLIYRMSNLASGVPDRFSGSGSGTDFTLKISRVEAEDVGVYYCAQMLEFPLTFGQGTKLEIKRTVAAPSVFIFPPSDEQLKSGTASVVCLLNNFYPREAKVQWKVDNALQSGNSQESVTEQDSKDSTYSLSSTLTLSKADYEKHKVYACEVTHQGLSSPVTKSFNRGEC

B2: 846.14A2: Gal3-binding antibody named only in the peptide 7 list (antibody)
heavy: QIQLVQSGPELKKPGETVKISCKASGYTFTNYGMNWVKQAPGKGLKWMGWINTYTGEPTYAGDLKGRFAFSLETSASTAYLQINNLKNEDTATYFCVRYTMDYWGQGTSVTVSSASTKGPSVFPLAPCSRSTSESTAALGCLVKDYFPEPVTVSWNSGALTSGVHTFPAVLQSSGLYSLSSVVTVPSSSLGTKTYTCNVDHKPSNTKVDKRV[human IgG4 Fc with S228P (EU numbers) cut from this listing]
light: QAVVTQESALTTSPGETVTLTCRSSTGAVTTSNYANWVQEKPDHLFTGLIGGINNRVPGVPARFSGSLIGDKAALTITGAQTEDEAIYFCALWYSNHWVFGGGTKLTVLRTVAAPSVFIFPPSDEQLKSGTASVVCLLNNFYPREAKVQWKVDNALQSGNSQESVTEQDSKDSTYSLSSTLTLSKADYEKHKVYACEVTHQGLSSPVTKSFNRGEC
- Gal3 peptide bound [2]: peptide 7

- Kd [3]: 18.4 nM
- GAL3-TIM3 Blocking @ 3 ug/mL ([1]; 3 ug/mL antibody): 6%
B3: 9H2.2H1: murine anti-Gal3 antibody (antibody)
heavy: QVQLQQPGAELVGPGSSVKLSCKASGYTFTNYWIHWVKQRPLQGLEWIGNIDPSDSETHYNQKFKDKATLTVDKSSSTAYMQLSSLTSEDSAVYYCARHGYYDYWGQGTTLTVSSASTKGPSVFPLAPCSRSTSESTAALGCLVKDYFPEPVTVSWNSGALTSGVHTFPAVLQSSGLYSLSSVVTVPSSSLGTKTYTCNVDHKPSNTKVDKRV[human IgG4 Fc with S228P (EU numbers) cut from this listing]
light: DIVMTQSHKFMSTSVGDRVSITCKASQDVSTAVAWYQQKPGQSPKLLIYWASTRHTGVPDRFTGSGSGTDYTLTISSVQAEDLALYYCQQHYTTPLTFGAGTKLELKRTVAAPSVFIFPPSDEQLKSGTASVVCLLNNFYPREAKVQWKVDNALQSGNSQESVTEQDSKDSTYSLSSTLTLSKADYEKHKVYACEVTHQGLSSPVTKSFNRGEC
